Hit rate of the full screen: of about 48,000 compounds, about 450 (0.94%) were called active. About 19% were inconclusive and are not listed. The call rests on the fitted dose curve; in most records, active means well fitted inhibition curve with a large enough effect; inconclusive means small, poorly fitted or top-dose-only effect; inactive means no such curve, though single readings can be large or run the other way. The list shows a part of the results.
assay: Primary qHTS for Identification of Small Molecule Inhibitors of Huntingtin Promoter Activity; settings: HEK293 HTT promoter firefly luciferase reporter (activity 0% = vehicle and -100% = no light), 24 h; series mostly up to 57.5 µM; activity change, negative = inhibition: at the top concentration; further: nearly all actives have a fitted effect of over 50% in size
Outline: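 Firefly luciferase readout (Dual-Glo, 10 min RT) after 24 h, 37 °C compound exposure (final up to 57.5 uM) of HEK293 reporter cells cultured 24 h beforehand; PTC124 at 50 uM final as control inhibitor; activity scaled vehicle 0%, zero RLU -100%.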
Potency means the concentration at half of the fitted maximal effect.

SMILES | activity change, negative = inhibition | Potency
COc1ccc2cc3[n+](cc2c1OC)CCc1cc2c(cc1-3)OCO2 | inactive: -25.5% | –
Cc1cc(C)cc(NC(=O)C2CC(=O)N(c3ccccc3)C2)c1 (stereo unspecified) | inactive: -15.3% | –
O=C(CCn1c(=O)c2sccc2n(Cc2ccc(F)cc2Cl)c1=O)NCc1ccc2c(c1)OCO2 | inactive: -5.69% | –
O=C(Nc1sc2c(c1C(=O)NCC1CCCO1)CCCC2)c1cc(=O)c2ccccc2o1 (stereo unspecified) | inactive: -4.59% | –
Cc1ccc(-c2nc3ccccc3o2)cc1NC(=O)Cc1ccc(Cl)cc1 | inactive: -6.13% | –
Cc1cccc(-c2nc(CN3CCCC(C(=O)NCCc4ccc(Cl)cc4)C3)c(C)o2)c1 (stereo unspecified) | – | active: 31.6 µM
Cc1ccc(-c2cc(C(=O)Oc3ccc(C#N)cc3)no2)cc1C | inactive: 15.7% | –
COC(=O)c1ccccc1NC(=O)CSc1nc(C)c(Cl)c(C)c1C#N | inactive: -14.1% | –
CCCCCCCCCCOCC(O)CN (stereo unspecified) | inactive: -16% | –
Cc1ccc2c(c1)c1c(c(=O)n(Cc3ccccc3)c(=O)n1CC(=O)Nc1ccccc1F)n2C | inactive: -1.75% | –
COCCNC(=O)CCCn1c(SCC(=O)NCc2ccc(C)cc2)nc2c(sc3ccccc32)c1=O | inactive: -2.18% | –
CCC(C)NC(=O)c1sc2nc(C)c(C(=O)Nc3ccc(C)cc3C)c(-c3ccc(NC(C)=O)cc3)c2c1N (stereo unspecified) | inactive: -28.6% | –
O=C(O)c1ccc(Cn2c(SCc3ccc(F)cc3)nc3ccncc32)cc1 | inactive: 4.54% | –
Cc1ccc2nc(NC(=O)CSc3nccn3Cc3ccc(F)cc3)sc2c1 | inactive: -16.2% | –
COCCNc1ccc2cc(S(=O)(=O)N3CCCCC3)ccc2n1 | inactive: 3.16% | –
Cc1ccccc1Cn1c(=O)n(-c2ccc(Cl)cc2)c(=O)c2c3c(sc21)CCCC3 | inactive: -7.33% | –
CCc1ccc(NS(=O)(=O)c2[nH]ncc2C(=O)OC)cc1 | inactive: 1.66% | –
CC(C)NC(=O)CN1C(=O)CCn2nc(-c3cn(C)c4ccccc34)cc21 | inactive: 22.3% | –
COc1ccc(OC)c(S(=O)(=O)NCC(c2cccs2)S(=O)(=O)c2ccc(F)cc2)c1 (stereo unspecified) | inactive: -29.4% | –
CCCS(=O)(=O)N1CCC(C(=O)NCCOC)CC1 | inactive: -10.8% | –
O=C(c1cc2c(=O)oc3ccccc3c2s1)N1CCN(c2ccccc2)CC1 | inactive: -0.156% | –
COc1ccc2c(c1)c1c(c(=O)n(-c3cccc(C)c3)c(=O)n1Cc1cccc(Cl)c1)n2C | inactive: -13.2% | –
Cc1ccc(-n2nc(C)c3c(C)cc(=O)n(CC(=O)Nc4cccc(C)c4C)c32)cc1 | inactive: -8.14% | –
O=C(Nc1cc2c(cc1C(=O)c1ccccc1Br)OCCO2)c1cccc(Cl)c1 | inactive: 1.95% | –

SMILES | activity change, negative = inhibition | Potency
COc1ccc(-c2nn(-c3ccccc3)cc2C2NC(=O)NC(C)=C2C(=O)OC(C)C)cc1OC (stereo unspecified) | inactive: -3.79% | –
Cc1ccc(-c2noc(-c3nnn(-c4cccc(C(F)(F)F)c4)c3N)n2)cc1 | inactive: 5.38% | –
O=S(=O)(c1ccc2nc(N3CCN(c4ccccc4F)CC3)ccc2c1)N1CCCCC1 | inactive: 1.04% | –
Cc1nc(-n2nc(C)c(CCC(C)C)c2C)sc1C(=O)Nc1ccc(Cl)cc1 | inactive: -8.04% | –
CCOC(=O)c1c(S(=O)(=O)N2CCCC(C(=O)NCc3ccccc3OC)C2)c(C)n(C)c1C (stereo unspecified) | inactive: -8.21% | –
CCc1nc(SC)ncc1C(=O)N1CCN(c2cc(C)ccc2C)CC1 | inactive: -21.7% | –
Cc1ccc(NC(=O)c2ccc(=O)n(Cc3ccccc3C)c2)c(C)c1 | inactive: -18.5% | –
Cc1ccc(CN2CCCn3nc(C(=O)NCCc4cccc(C)c4)cc3C2=O)cc1 | inactive: -36.5% | –
Cc1ccc(-c2nc(N3CCCC(C)C3)c3ccccc3n2)cc1 (stereo unspecified) | inactive: -9.74% | –
CCc1ccccc1NC(=O)CSc1nc2c(oc3ccccc32)c(=O)n1C | inactive: -11.7% | –
NC(=O)C1CCN(S(=O)(=O)c2ccc(N3CCCCS3(=O)=O)cc2)CC1 | inactive: -3.52% | –
Cc1nn(C)c2c1c(-c1ccccc1)cc(=O)n2CC(=O)NC(C)C | inactive: -4.06% | –
COc1cccc(CNC(=O)C2CCCN(c3nc4ccccc4n4cccc34)C2)c1 (stereo unspecified) | inactive: 2.77% | –
Cc1ccc(CN2CCCn3nc(C(=O)NCCc4ccccc4Cl)cc3C2=O)cc1 | inactive: -25.4% | –
COc1ccc(CCNCc2ccc3c(c2)n(C)c(=O)n3C)cc1OC | inactive: -6.57% | –
Cc1ccc(CNC(=O)c2ccc3c(O)c(S(=O)(=O)c4ccc(Cl)cc4)c(=O)[nH]c3c2)cc1 | inactive: -2.11% | –
COc1ccc(C)cc1NC(=O)c1cc(S(=O)(=O)N2CCN(c3cccc(C)c3C)CC2)ccc1F | inactive: 6.1% | –
CCCn1c2ccc(F)cc2c2nnc(SCCN(CC)CC)nc21 | inactive: -7.15% | –
Cc1c(C(=O)Nc2ccccc2Cl)oc2ccc(S(=O)(=O)N3CCCCC3)cc12 | inactive: -15.9% | –
Cc1ccc(C(=O)Nc2cccc(C(=O)OCc3cc(=O)n4nc(C5CC5)sc4n3)c2)cc1 | inactive: -9.52% | –
COCC(C)Nc1ncnc2c1cnn2-c1ccc(C)c(C)c1 (stereo unspecified) | inactive: 39.4% | –
CCCOc1ccc(C2CC(=O)Nc3c2c(=O)n(C)c(=O)n3C)cc1OC (stereo unspecified) | inactive: -16.3% | –
CCOc1ccc(N2CC(NC(=O)C3CC3)CC2=O)cc1 (stereo unspecified) | inactive: -1.57% | –
COc1ccc(-n2nc(C(=O)NCc3ccc(F)cc3Cl)c3c4ccccc4n(C)c3c2=O)cc1Cl | inactive: -0.575% | –

SMILES | activity change, negative = inhibition | Potency
CCCCN(CC)CCCNC(=O)Cn1ncc2c3ccccc3n(Cc3ccc(F)cc3)c2c1=O | inactive: -15% | –
Cn1c(=O)c(=O)n(C)c2cc(S(=O)(=O)N3CCN(c4ccccc4)CC3)ccc21 | inactive: -11.2% | –
CC(NC(=O)c1ccc2c(c1)sc1nc(-c3ccccc3)cn12)C12CC3CC(CC(C3)C1)C2 (stereo unspecified) | inactive: -12.6% | –
COc1ccc(S(=O)(=O)NCc2nc3nc(C)cc(C)n3n2)cc1OC | inactive: 8.35% | –
COc1ccc(CNC(=O)CSc2c3c(nc4ccc(Cl)cc24)CCCC3)cc1 | inactive: -15% | –
CCc1nn(CC(=O)Nc2ccc(NC(C)=O)cc2)c(=O)c2cc3sccc3n12 | inactive: 1.74% | –
O=C(Cn1cnc2onc(-c3ccc(Cl)cc3)c2c1=O)Nc1ccc(F)cc1 | inactive: -12.7% | –
COCCNC(=O)CN1C(=O)c2cccnc2Oc2ccc(Cl)cc21 | inactive: 4.98% | –
O=[N+]([O-])c1cc(-c2nc(-c3ccccc3)no2)ccc1N1CCOCC1 | inactive: -29.3% | –
CCOc1ccccc1NC(=O)C1=C(C)Nc2ncnn2C1c1ccc(C)o1 (stereo unspecified) | inactive: -12% | –
CCc1ccccc1NC(=O)Cn1c(SCc2ccc(F)cc2)nc2ccncc21 | inactive: -1.15% | –
Cc1cccc(NC(=O)c2oc3ccccc3c2NC(=O)Cc2coc3ccc(C(C)C)cc23)c1 | inactive: 33.4% | –
CCc1cccc(CC)c1NC(=O)CCS(=O)(=O)c1ccc2c(c1)CCN2C(C)=O | inactive: -3.29% | –
O=C(CCCn1c(=O)c2cccn2c2ccccc21)NCc1ccccc1Br | inactive: -0.448% | –
COc1cc(C(C)C)c2c(c1)S(=O)(=O)N(COc1cc(=O)n3cccc(OCCN4CCCCC4)c3n1)C2=O | inactive: -17.3% | –
CC1CCN(C(=O)C2COc3ccccc3C2)CC1 (stereo unspecified) | inactive: -4.37% | –
CCCCOc1ccccc1C(=O)N(Cc1cccc(F)c1)C1CCS(=O)(=O)C1 (stereo unspecified) | inactive: -8.39% | –
CCOc1ccc(CCNC(=O)CSc2nnnn2-c2ccc(C)cc2C)cc1OCC | inactive: -24.2% | –
CCOc1ccc(NC(=O)N(C)CCc2c(C)nn(C)c2C)cc1 | inactive: 5.83% | –
COc1cc(OC)c(NC(=O)C(Cc2ccccc2)NS(=O)(=O)c2cccc3nsnc23)cc1Cl (stereo unspecified) | inactive: -39.9% | –
CN(C)c1ccc(NC(=O)CSc2nc3ccsc3c(=O)n2CCCCCC(=O)O)cc1 | inactive: 5.46% | –
CC(C)CCNC(=O)CN1C(=O)c2cccnc2Sc2ccccc21 | inactive: -6.73% | –
CC(=O)c1cccc(NC(=O)Cc2noc3ccccc23)c1 | inactive: 11.3% | –
CCS(=O)(=O)c1ccccc1C(=O)Nc1ccc(-c2nc3ccccc3s2)cc1 | inactive: -24.8% | –

SMILES | activity change, negative = inhibition | Potency
COc1ccc(CC(=O)Nc2cc(-c3cn4cccnc4n3)ccc2OC)cc1 | inactive: -2.38% | –
CCCCC(=O)NC1(C(F)(F)F)C(=O)Nc2c1c(=O)[nH]c(=O)n2-c1ccc(C)c(C)c1 (stereo unspecified) | inactive: -8.71% | –
COc1cccc(NC(=O)CSC2=Nc3ccccc3C3=NC(CC(=O)NCc4ccc5c(c4)OCO5)C(=O)N23)c1 (stereo unspecified) | inactive: 11.2% | –
COc1ccc(C)cc1NC(=O)Nc1ccccc1OCc1cc(=O)n2ccccc2n1 | inactive: -11.2% | –
CCCCNC(=O)c1cnc2sc(N3CCCCCC3)nn2c1=O | inactive: 1.91% | –
Cc1cc(C)c(NC(=O)C(=O)NCC(c2cccnc2)N2CCN(Cc3ccccc3)CC2)c(C)c1 (stereo unspecified) | inactive: -13.8% | –
Cc1ccccc1-c1noc(-c2ccc(N3CCN(C)CC3)c([N+](=O)[O-])c2)n1 | – | active: 2.24 µM
COc1ccc2c(c1)c1c(c(=O)n(-c3ccccc3)c(=O)n1CC(=O)NCc1ccc(C)cc1)n2C | inactive: -9.97% | –
COc1ccc(CC(=O)N(Cc2nc(-c3ccc(C)cc3)no2)C(C)C)cc1 | inactive: -25.4% | –
O=C(CSc1nc2nccnc2c(=O)n1CCc1c[nH]c2ccccc12)Nc1ccc(F)cc1 | inactive: -21.6% | –
COc1ccc(-n2cc(C(=O)OCc3ccc(Cl)cc3)c3ccccc3c2=O)cc1 | inactive: 11% | –
CN(C)c1ccc(C(CNS(=O)(=O)c2ccc(F)cc2)N2CCOCC2)cc1 (stereo unspecified) | inactive: -17.1% | –
Cc1c(C(=O)OC2CCCCCC2)[nH]c2c1C(=O)CC(c1ccc(N(C)C)cc1)C2 (stereo unspecified) | inactive: -0.0662% | –
COc1cc(OC)cc(C(=O)Nc2cc(-c3nc4cccnc4s3)ccc2C)c1 | inactive: -15.2% | –
CCOc1ccc(Nc2sc(C(=O)c3cccc(OC)c3)c(N)c2S(=O)(=O)c2ccccc2)cc1 | inactive: -8.82% | –
COc1ccc(NC(=O)C2CCN(S(=O)(=O)c3ccc4c(c3)CCCC(=O)N4)CC2)c(OC)c1 | inactive: -27.6% | –
Cn1c(=O)c(=O)n(C)c2cc(S(=O)(=O)N3CCCC3C(=O)Nc3ccc(F)cc3)ccc21 (stereo unspecified) | inactive: -11.3% | –
CCOc1ccc(CNC(=O)Cn2ccc3cc(S(=O)(=O)N4CCCCC4)ccc32)cc1 | inactive: -19.6% | –
COc1ccc(S(=O)(=O)N(CC(=O)NCCSCc2ccccc2)c2ccc(C)cc2)cc1 | inactive: -15.3% | –
Cc1ccc(S(=O)(=O)NCc2ccc(C(=O)NCCc3cccc(C)c3)cc2)cc1 | inactive: -8.6% | –
O=C(c1ccccc1Br)N1CCC(c2nc3ccccc3o2)CC1 | inactive: -20.2% | –
Cc1ccc(Cn2c(=O)n(-c3cc(C)cc(C)c3)c(=O)c3oc4ccccc4c32)cc1 | inactive: -2.69% | –
O=S(=O)(c1ccc(-n2cnnn2)cc1)N1CCN(c2cccc(C(F)(F)F)c2)CC1 | inactive: -7.14% | –
Cc1ccsc1CN(C(=O)COc1cccc(C)c1C)C1CCS(=O)(=O)C1 (stereo unspecified) | inactive: -23.5% | –

From PubChem BioAssay AID1508623 (National Center for Advancing Translational Sciences (NCATS), 2021)
